# Test results reported in the supplement of paper PMC7826260.
# The other results are listed elsewhere or left out. Viral Rep nickase domains cut single-stranded DNA in vitro (3 µM enzyme, 1 h, 37 °C); shown is the middle of each 90-letter strand. The score is log2 (uncut reads / reads without enzyme); uncut sequences lie near 0, cut ones below; no hit call is given. Reads are scaled to the total; values above 0 arise when much of the pool is cut.
# Legend:
# Test in all cases: uncleaved DNA left, log2 of reads against the no-enzyme library (log2 ratio); higher = less cleavage (more negative = more Rep cleavage of the k-mer); sequences stand for … in CTCGTCCG…ACCGGAGA
# [1] = tested on: T1, Rep nickase domain of Muscovy duck circovirus
# T1 sequence (Rep 1-111, printed without the tag): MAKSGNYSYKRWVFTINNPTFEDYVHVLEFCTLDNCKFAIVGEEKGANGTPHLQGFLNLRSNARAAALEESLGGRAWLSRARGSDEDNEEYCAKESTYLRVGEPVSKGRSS
# Method: (§1)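 A pool of 90-nt single-stranded DNAs with seven random bases just before the constant AC of the nick site (name = the seven bases) was cut by 3 µM recombinant His6-SUMO-tagged Rep nickase domain (300 nM DNA, 50 mM HEPES pH 8.0, 50 mM NaCl, 1 mM MnCl2, 1 h, 37 °C, three replicates). Uncut DNA was amplified and sequenced.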
# [2] = tested on: T2, Rep nickase domain of banana bunchy top virus
# T2 sequence (Rep 1-94, printed without the tag): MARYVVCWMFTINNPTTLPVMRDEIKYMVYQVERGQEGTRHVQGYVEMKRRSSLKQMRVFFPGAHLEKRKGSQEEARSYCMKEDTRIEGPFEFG
# Method: as §1
# [3] = tested on: T3, Rep nickase domain of cabbage leaf curl virus
# T3 sequence (Rep 1-116, printed without the tag): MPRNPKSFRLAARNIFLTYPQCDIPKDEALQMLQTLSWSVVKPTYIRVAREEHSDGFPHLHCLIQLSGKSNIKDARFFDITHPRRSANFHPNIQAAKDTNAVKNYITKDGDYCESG
# Method: as §1
# [4] = tested on: T4, Rep nickase domain of chickpea chlorotic dwarf virus
# T4 sequence (Rep 1-124, printed without the tag): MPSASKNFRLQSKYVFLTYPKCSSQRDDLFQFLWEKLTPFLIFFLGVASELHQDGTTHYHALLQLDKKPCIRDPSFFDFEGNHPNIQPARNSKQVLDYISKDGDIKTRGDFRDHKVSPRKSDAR
# Method: as §1
# [5] = tested on: T5, Rep nickase domain of faba bean necrotic yellows virus
# T5 sequence (Rep 1-98, printed without the tag): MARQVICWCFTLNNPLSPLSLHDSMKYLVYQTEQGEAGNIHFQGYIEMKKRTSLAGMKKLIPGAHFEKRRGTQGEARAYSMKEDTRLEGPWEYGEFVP
# Method: as §1
# [6] = tested on: T6, Rep nickase domain of maize striate mosaic virus
# T6 sequence (Rep 1-117, printed without the tag): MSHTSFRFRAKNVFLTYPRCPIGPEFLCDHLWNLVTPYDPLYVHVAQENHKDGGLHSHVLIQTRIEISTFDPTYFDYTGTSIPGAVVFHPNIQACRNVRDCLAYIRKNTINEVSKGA
# Method: as §1
# [7] = tested on: T7, Rep nickase domain of porcine circovirus 2
# T7 sequence (Rep 2-116, printed without the tag): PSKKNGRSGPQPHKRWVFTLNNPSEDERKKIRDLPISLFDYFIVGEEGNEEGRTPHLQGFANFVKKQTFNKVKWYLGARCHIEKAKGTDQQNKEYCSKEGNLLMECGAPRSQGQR
# Method: as §1
# [8] = tested on: T8, Rep nickase domain of tomato yellow leaf curl virus
# T8 sequence (Rep 1-136, printed without the tag): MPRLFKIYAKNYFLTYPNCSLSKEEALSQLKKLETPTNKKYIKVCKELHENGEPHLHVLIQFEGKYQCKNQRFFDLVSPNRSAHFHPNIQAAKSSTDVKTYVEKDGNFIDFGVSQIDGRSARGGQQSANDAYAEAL
# Method: as §1
# [9] = tested on: T9, Rep nickase domain of wheat dwarf virus
# T9 sequence (Rep 1-137, printed without the tag): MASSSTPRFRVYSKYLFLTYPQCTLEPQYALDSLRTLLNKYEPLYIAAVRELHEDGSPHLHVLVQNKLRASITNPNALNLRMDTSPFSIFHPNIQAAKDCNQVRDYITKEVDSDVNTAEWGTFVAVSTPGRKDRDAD
# Method: as §1
Sequence,uncleaved DNA left (log2) [1],uncleaved DNA left (log2) [2],uncleaved DNA left (log2) [3],uncleaved DNA left (log2) [4],uncleaved DNA left (log2) [5],uncleaved DNA left (log2) [6],uncleaved DNA left (log2) [7],uncleaved DNA left (log2) [8],uncleaved DNA left (log2) [9]
AGATACG,-0.0321,-0.0186,-0.872,-0.302,0.0588,-1.14,0.248,-0.00377,0.0132
CCATTTT,-3.23,-0.161,-0.898,-2.64,0.00337,-1.22,-3.3,0.219,-0.25
TCCGACA,-0.0208,0.0469,-0.16,-0.361,-0.0144,-0.118,-0.126,0.0663,0.019
ACCCACG,-0.075,0.0313,-0.653,0.631,-0.0144,-0.44,0.0451,-0.0392,-0.0318
AGAGAGG,0.0562,-0.0357,-0.017,0.57,0.0291,1.05,0.115,-0.0851,0.0231
AGCTCAA,-0.0963,0.0181,0.0449,0.351,0.0158,0.151,-0.497,-0.154,-0.0179
CACATCT,0.0375,-0.152,-0.62,-3.09,0.0915,-0.952,-1.18,0.0469,-0.0231
ATGTCAC,0.0422,0.0155,-0.0206,-0.235,-0.0584,-0.687,-0.0238,0.0124,0.04
CTCGGAA,-0.0295,0.0366,0.33,0.916,-0.0393,0.977,-0.0496,0.0318,-0.041
CCAGGGG,0.0471,0.0432,0.154,0.515,-0.113,0.178,0.247,0.0185,0.067
AGCAAAA,-0.063,0.134,0.142,0.456,0.151,0.339,-0.226,0.014,0.163
AAGGAGT,0.0368,0.0152,0.216,1.35,0.0354,1.63,0.154,-0.118,-0.0578
TCTCCAT,0.102,0.0632,0.281,-0.0545,0.0893,0.424,-0.0978,0.0407,0.0148
GATCGAA,-0.0463,0.102,0.237,0.422,-0.0388,0.277,0.0451,0.00148,0.00978
CGTCACG,0.0996,0.0662,-0.736,-0.342,-0.0406,-1.12,0.0703,0.00821,-0.0723
GCGGCAG,0.0142,0.0163,0.442,1.16,0.0107,1.5,0.151,-0.0698,0.103
GCCTGCG,-0.00442,-0.0722,-0.0545,1.21,0.00292,0.819,0.111,-0.19,0.00783
ACGATGT,0.107,0.0645,-0.145,-0.0736,0.0171,-0.383,0.15,0.0627,-0.0199
GTACTGA,0.0446,0.0515,0.249,0.749,0.0892,1.56,0.0585,-0.00406,0.0303
CGGATCG,0.058,-0.0971,-0.687,-0.225,-0.0735,-0.776,0.214,0.0274,-0.0706
TAGTGGC,0.00387,-0.00835,-0.179,-0.403,-0.102,-0.861,-0.358,0.0193,0.00244
CCCCCAT,0.0456,0.0261,0.0452,-0.616,-0.0105,-0.35,-0.117,0.0592,0.0853

Sequence,uncleaved DNA left (log2) [1],uncleaved DNA left (log2) [2],uncleaved DNA left (log2) [3],uncleaved DNA left (log2) [4],uncleaved DNA left (log2) [5],uncleaved DNA left (log2) [6],uncleaved DNA left (log2) [7],uncleaved DNA left (log2) [8],uncleaved DNA left (log2) [9]
AATGACC,0.0317,-0.0238,0.0495,0.626,0.00875,0.916,0.122,-0.0556,0.0205
AATCGGA,0.027,0.0861,0.191,0.42,0.0362,-0.0839,0.11,0.0356,0.0804
CGAGAGA,-0.0209,0.131,0.163,0.641,0.00138,0.189,-0.00233,-0.0337,0.0575
ACCATAA,0.0698,0.00303,-0.331,-0.344,0.0388,-1.12,0.179,-0.0138,-0.000663
CTTATCG,-0.0606,-0.0193,-0.859,-0.484,0.0174,-1.03,0.0688,-0.0402,-0.195
TCATGAG,0.0635,0.0873,-0.721,-0.0222,0.0567,-0.998,0.0868,0.0674,-0.11
CTGTAGA,0.0199,-0.0626,-0.167,-0.378,0.0473,-0.997,0.17,-0.0411,-0.0772
GTCTGAG,-0.0737,0.0289,0.0362,0.479,-0.105,0.24,0.0967,-0.0258,-0.0184
AATATCA,0.0309,0.162,0.373,-0.575,-0.0289,0.213,0.00721,0.226,0.182
ACCACAT,0.141,0.0354,0.22,-0.0103,0.108,-0.21,0.198,0.0584,0.194
TAGCCGT,0.073,-0.0467,-0.494,-1.27,-0.0194,-0.947,-1.04,0.0553,0.0334
TTAGCAC,0.0116,-0.0287,-0.0473,-0.27,0.0172,-0.844,0.0499,-0.0156,-0.0791
CCCACGT,0.0922,-0.102,0.186,-0.203,-0.00451,-0.237,-0.086,-0.0796,-0.156
TTAGGCT,-0.0356,-0.026,0.117,-0.21,0.00953,0.39,-0.0282,-0.0472,0.00742
GATGCTC,0.0377,0.0627,0.258,0.276,0.0657,0.197,0.0427,0.184,0.0398
GCAAGGT,0.111,0.0491,0.319,0.835,0.0905,0.778,0.0617,-0.00645,0.0785
CCTCGCG,0.128,0.0863,-0.613,0.13,0.0957,-0.619,0.194,0.149,-0.0137
GAATTTT,-3.38,-0.701,-3.33,-2.84,-0.156,-2.23,-3.64,-0.408,-3.26
TGCCAGT,-0.0254,0.122,-0.171,-0.573,0.115,-0.731,-0.146,0.103,-0.000743
GAAGGTA,0.0931,0.0574,0.345,0.719,-0.0252,1.39,0.0731,0.0351,0.0472
GCGTCTA,0.0338,-0.0447,0.0218,0.222,0.0716,0.782,0.0892,0.0566,0.221
ACTATAG,0.0233,-0.025,-0.775,-0.426,-0.0222,-1.37,0.0222,-0.114,-0.195

Sequence,uncleaved DNA left (log2) [1],uncleaved DNA left (log2) [2],uncleaved DNA left (log2) [3],uncleaved DNA left (log2) [4],uncleaved DNA left (log2) [5],uncleaved DNA left (log2) [6],uncleaved DNA left (log2) [7],uncleaved DNA left (log2) [8],uncleaved DNA left (log2) [9]
CTCTTAC,-0.911,-0.136,-0.336,-2.02,-0.0221,-0.792,-1.58,-0.0778,-0.14
CCGCCAT,-0.0538,-0.0529,0.0317,-0.395,-0.162,-0.159,-0.107,-0.198,-0.112
CGTGGGA,0.112,-0.0191,0.27,0.5,0.0388,0.0919,0.0704,0.013,0.0327
TGTGCCA,0.103,0.0817,0.257,0.604,0.0834,1.09,0.179,0.15,0.0978
CGACCCC,-0.00591,-0.086,0.261,0.565,-0.054,0.529,-0.0446,0.0476,0.182
TTAAAAG,0.041,0.00129,-0.725,-0.756,-0.0172,-1.34,0.2,0.0394,-0.0383
TGGAAGA,0.00434,0.0262,0.293,0.682,-0.0927,0.0814,0.0767,0.0095,0.106
TGTGGGA,0.0642,-0.0523,0.331,0.507,0.0381,0.261,0.202,0.0332,0.0106
GTGTTTA,-0.0341,0.0937,0.317,0.743,-0.0159,1.74,0.123,0.0617,-0.00112
ATATCCC,-0.118,-0.0659,-0.0638,-0.102,-0.187,-0.361,-0.0956,-0.137,-0.0584
TTATCCA,-0.0252,0.15,0.347,-0.298,0.112,0.431,0.0105,0.173,0.222
CCGAAGG,0.099,0.0177,0.313,1,0.102,0.498,0.225,-0.013,0.134
ACCGCTA,-0.046,-0.0448,-0.44,-1.05,-0.127,-1.04,-0.161,-0.103,-0.0617
TATGGTA,0.117,0.0165,0.324,0.072,0.0412,0.972,0.0728,0.157,0.155
AAATACC,-0.0672,-0.137,-2.77,-2.8,-0.127,-0.959,-0.827,-0.14,-0.346
TATGTCC,0.00812,-0.127,-0.0452,-0.783,-0.073,-0.551,-0.137,-0.04,-0.0681
ATCGTTT,-0.181,-0.15,-0.147,-2.17,-0.0928,-0.585,-0.151,-0.124,-0.164
CGTAGTA,-0.0647,-0.0644,0.117,-0.41,-0.0513,-0.0913,-0.164,0.00407,-0.0316
GGCAATA,0.0133,0.0934,0.667,1.36,-0.00773,1.92,0.137,0.0877,0.155
CCGCCTA,-0.183,-0.102,-0.084,-0.969,-0.106,-0.457,-0.158,-0.16,-0.0783
TTAGGGA,0.0256,0.0568,0.366,0.844,0.0706,0.801,0.0834,0.0291,0.0088
GCTACTA,-0.121,-0.106,-0.0881,-0.686,-0.0647,0.327,-0.0739,-0.0601,-0.00286
